Data on 22 molecules can be found in publication PMC12136788.

B1: chr10:22824096:22824097:-_ENSG00000150867_ENST00000376573|hu_hu|motif|central (ssRNA)
RNA: GGGAGUUCUACAGUCCGACGAUCGAAAUAAAUGACAGACUGUUUGUUAUAGACAAAAAUAAAAGCAUUCUGUAAACUUCGGAAAGCAUACACAGAUUGGCCCCCAAGGAAACAGUUACUCAAAUAAUGUAUGUGUACCUUAUCCAACAGAGGAUUGAGCAUCA
B2: chr18:67649703:67649704:-_ENSMUSG00000024533_ENSMUST00000115050|mus_mus|FALSE|FALSE (ssRNA)
RNA: GGGAGUUCUACAGUCCGACGAUCUGUUACUGUAUCUUAAUGAUGGUGAAAUGCGACUGGCAUGCCUUUUAUCAAAUGGAGAUGUCAUCAGUGGUGGUAAUGAGGGUGGUUUGUCAGAGCUUUCAGGAGUUACACUGUGCAUGUCAACAGAGGAUUGAGCAUCA
B3: chr2:48026839:48026840:+_ENSG00000116062_ENST00000540021|hu_hu|hu_hu_hu_mus_False|58_88 (ssRNA)
RNA: GGGAGUUCUACAGUCCGACGAUCAUAGUGAGCCACUAGCGUCCUAAAUCUCGAACAGUGGCGGUCAUCCGAAAACUGACCUAUGAAAAACUUGCCCAGUGAAGUGUCCACAAAGCAAACACCAUACACACGAGUGUGACCAGACAACAGAGGAUUGAGCAUCA
B4: chr2:119791414:119791415:+_ENSMUSG00000033943_ENSMUST00000110774|mus_hu|FALSE|FALSE (ssRNA)
RNA: GGGAGUUCUACAGUCCGACGAUCUACUUUACUGAAGGCUUGAAUUUGUUAAUUCUGAUUGAAAAGGUGAGGGAAUGGGAGCUACUUAGGAUAUGAAAAAAGAAAAUUUUACUGAAUGACACAAAGUCCUUCACUUUGGUAUUCCAACAGAGGAUUGAGCAUCA
B5: 151261739_151261965_2669_CDS_ENSG00000143373_ENST00000336715|human|control|control (ssRNA)
RNA: GGGAGUUCUACAGUCCGACGAUCCGGGCACUUAAAGACACUGACACGCUGGGGCAGCAAGUGCUGGUCGAAGUGUGAGGAGAGGAGGGGUUUGUGAGUGAAGACUGUGUCGCACAUGGCGCACUUGUAGAUCAGCUUGGCCUGCAACAGAGGAUUGAGCAUCA
B6: chr7:141441981:141441982:+_ENSG00000106028_ENST00000265304|hu_mus|hu_hu_hu_mus_False|38_58 (ssRNA)
RNA: GGGAGUUCUACAGUCCGACGAUCCUCAUGUCUUACAAACUGACGAAAUACCUGUAACACAGGUCUUCGAAACAUGGCUUCUAUUUUUCUUACAACCAGUCUAAUCUGCUUUUCCUAAAGGAAAGAAAGAAAAGAGAAAAAUGACAACAGAGGAUUGAGCAUCA
B7: chr8:74858975:74858976:-_ENSG00000154582_ENST00000284811|hu_mus|hu_hu_hu_mus_True|1_48 (ssRNA)
RNA: GGGAGUUCUACAGUCCGACGAUCGACCUUGUAGGUAAAAUACAUGCACACUUUUGAUAGCACAUGUGAGGGGAUCUCUCUAAAAUUGACCUCAUUGGUUUCAUUCUCAGCAAACUGACCUGGACCACUCAACAUAGCUUUUAUCAACAGAGGAUUGAGCAUCA
B8: chr19:60835742:60835743:+_ENSMUSG00000072437_ENSMUST00000088237|mus_mus|motif|central (ssRNA)
RNA: GGGAGUUCUACAGUCCGACGAUCUUCUGAAAAGGACUUUAUAGGAAAAAUAAAGUACAAAAAAGUAAAAAGCCGAUAAAACGGGCAAGUUUGGAUAGACAAAUGCAGGCUAAAGCACAGCACAACCUGUGCCUUUCUGCCCAUCAACAGAGGAUUGAGCAUCA
B9: chr2:97007812:97007813:+_ENSG00000121152_ENST00000240423|hu_mus|FALSE|FALSE (ssRNA)
RNA: GGGAGUUCUACAGUCCGACGAUCAGAAAGCUUGAUACAGGUAGAGUAAUGUUCUGUAAUCUGUGUGUUUGUAAACUUAGAUAUGGUAGUUGAAACAUCAAUAUUCCUGUUAGGGGAGGCCAGAUGAAUCGAAUCUGUACUGAACAACAGAGGAUUGAGCAUCA
B10: chr1:181699228:181699229:-_ENSMUSG00000026491_ENSMUST00000027768|mus_hu|FALSE|FALSE (ssRNA)
RNA: GGGAGUUCUACAGUCCGACGAUCAAUUUUAGAUAACACAUUGUUGAUGAAAACAGAUCUUGUCAACACAGUUCCUGUUACAACUUGCUUUGGAACUGCUGAUAAUGGUUUGGGUCUAGAAACUAAUCGAAAAACUGAUGAUGUCAACAGAGGAUUGAGCAUCA
B11: chr15:35867035:35867036:-_ENSMUSG00000014313_ENSMUST00000014457|mus_mus|FALSE|FALSE (ssRNA)
RNA: GGGAGUUCUACAGUCCGACGAUCAGAAGACCACGCAUCUGUGGUUUGGGCAACAGCGCACCGGAACUCAUGGUAGCCAAUGUCCUCUACACCAACGUCCUUCCCGGUUCUCGGAGAAACGGAGAGCCUUCCAGCAGCACGCAUCAACAGAGGAUUGAGCAUCA
B12: chr4:140556289:140556290:+_ENSMUSG00000036622_ENSMUST00000037055|mus_mus|mus_mus_mus_hu_False|1_48 (ssRNA)
RNA: GGGAGUUCUACAGUCCGACGAUCGAUGGAGCUCACCAGGCCCCCUUUUGCCGUGCAGAACCCUGUGCGGGUCACCACUGCCAGGACACGGGGUCCCACAUAGGCCCGGGCCUGCAAGAUGAGGGUCCCGCAGAAGAGGGUGUGCAACAGAGGAUUGAGCAUCA
B13: chr2:128891733:128891734:+_ENSMUSG00000027394_ENSMUST00000035812|mus_mus|FALSE|FALSE (ssRNA)
RNA: GGGAGUUCUACAGUCCGACGAUCCCUCAGCCUCAGCCCCGCUGUCGGUCUAAUUCCAGGGCCGCGCCUCCGGAUUACCCUAGUGUCUGCCCUGGGCGCCCGCGCCACCGCCCGAGUGGCGAGCGCCACCCGGACGCCGCGCCCCAACAGAGGAUUGAGCAUCA
B14: chr2:179515052:179515053:+_ENSMUSG00000000305_ENSMUST00000000314|mus_hu|mus_mus_mus_hu_False|18_18 (ssRNA)
RNA: GGGAGUUCUACAGUCCGACGAUCGCUGUCCCAUGCAGUCACCGUGAACGCCACCUGCUCGGAGGGGACCUGCAGCUCCCGGGUGGCGAAGACUGUCCCAUCUGCCCCAACUUUGAAGUCCAAGCUGUUGGUCUCAUAUUGUGUCAACAGAGGAUUGAGCAUCA
B15: 106613029_106613149_2307_3pUTR_ENSMUSG00000040661_ENSMUST00000046502|mouse|control|control (ssRNA)
RNA: GGGAGUUCUACAGUCCGACGAUCUCCUGGAAAGGGUUAAAGCCAACUCCCUGUAGGAACUUGCUGUUGGUUGCUUCUCCCAUUGAGGAAGGCAAGGCACUAUCUUCUCCCUUGACUUUUGUGCCAUGUGGUGGGCAGCGGGCACAACAGAGGAUUGAGCAUCA
B16: chr14:57521665:57521666:+_ENSMUSG00000021945_ENSMUST00000022511|mus_mus|motif|central (ssRNA)
RNA: GGGAGUUCUACAGUCCGACGAUCAACAACGUCAUCAUCAUCUUCUACUGAUGAGUUCUGAAACUUACUAGAUCUAGACACGGAAGGAUUAGGUGGGCCACUAAAUGAAUUUCCUACGUUCGUGAGACUAGUUGCCAUGGCUGUCAACAGAGGAUUGAGCAUCA
B17: chr15:38448722:38448723:-_ENSMUSG00000037458_ENSMUST00000152833|mus_mus|FALSE|FALSE (ssRNA)
RNA: GGGAGUUCUACAGUCCGACGAUCAGAUAACGGCCCAAAGAGUCGGGUAAAGCGUCUUCUCUUUUUCGGCGGAAUUUUUAAAGAGGGAUGUGGUUACCUUGAGCAGAAAUACCCAAGGCGGCCUGGGCCAUAGGCUGCGGGGACCAACAGAGGAUUGAGCAUCA
B18: 128827806_128827926_1808_3pUTR_ENSMUSG00000040928_ENSMUST00000106061|mouse|control|control (ssRNA)
RNA: GGGAGUUCUACAGUCCGACGAUCCCUCUUCCUUACAGUAGACUGGAAGGUGAGUCUGCCUGCCCUUACAGCUGGUAUUUUACUCAAAGCCUGACUGUUCUGACUUAAUGCAGGCCUUCAAAAGAGAAUUACCUUCAUUUAAAACAACAGAGGAUUGAGCAUCA
B19: chr1:150923288:150923289:+_ENSG00000143379_ENST00000271640|hu_hu|FALSE|FALSE (ssRNA)
RNA: GGGAGUUCUACAGUCCGACGAUCCAAACAGAACAUCUCCAGGAAGAGGAAGUCACAGCCAGUCUCGAAAAGGUAGCGUUCUAUCUCCUGCAUUGUCCGAAGGCAGAGACCACAAGGUGUCUUAUAGAUAACAUGAAAGCCCAUCAACAGAGGAUUGAGCAUCA
B20: chr12:39763582:39763583:-_ENSG00000139116_ENST00000544797|hu_mus|hu_hu_hu_mus_False|28_58 (ssRNA)
RNA: GGGAGUUCUACAGUCCGACGAUCCUCUAGGAACUGGGCAUUCACUUUGAAUUCAGGAGGGGGCAGCCCGUUUUUAAUUGCUAUGUGCUUUUUCUCAUCAAUACUCUUAAAAAGGUGUCUAACAGCACGAGAGAUGAUGCCCUGCAACAGAGGAUUGAGCAUCA
B21: chr3:63791606:63791607:+_ENSMUSG00000027823_ENSMUST00000029405|mus_hu|motif|central (ssRNA)
RNA: GGGAGUUCUACAGUCCGACGAUCAAGCAAAACAACUUCUUCCUUCUGAAGGCCCCUGAAUAAUGAACAUGUAUUAUCCACACGGAUGUUGAAAACUCCAUCUUCUCUGACACUUUUUUUGUGCACAGUACCUCCAAAUACCUUCAACAGAGGAUUGAGCAUCA
B22: chr6:145166005:145166006:-_ENSMUSG00000030265_ENSMUST00000032399|mus_hu|motif|central (ssRNA)
RNA: GGGAGUUCUACAGUCCGACGAUCUUAACACAGAAGUUACUAAAUAUAAAUUCAGCUUUAAGGUAACUGCUGGGUUCGGAAAAACAUUACUACACAAUUAUCAAGAAAUCAUUACUUUUUGACAAAUGGAAAUCUUCAGAUAGUCAACAGAGGAUUGAGCAUCA

This is one part of the list.

This experiment addresses T1, UNK ZnF1-3 (human, UniProt Q9C0B0 31-174).
T1 sequence: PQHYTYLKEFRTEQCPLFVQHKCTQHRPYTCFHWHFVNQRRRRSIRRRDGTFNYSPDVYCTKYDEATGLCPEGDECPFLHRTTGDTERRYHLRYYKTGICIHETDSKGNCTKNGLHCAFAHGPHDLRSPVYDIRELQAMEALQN
Nature of the experiment: nsRBNS (natural sequence RNA bind-n-seq); RBNS binding buffer (assumed for nsRBNS): 25 mM Tris pH 7.5, 150 mM KCl, 3 mM MgCl2, 0.01% Triton X-100, 500 ug/ml BSA, 20 U/ml SUPERase-In, 4 C; UNK is unkempt and MSI1 is Musashi-1; names of the RNAs are library labels; protein concentration not given here; high values mean tight binding.
As to B1, the binding signal amounted to 1.28 enrichment R.

B2 returned a binding signal of 0.99 enrichment R.

For the molecule B3, the binding signal stood at 1.1 enrichment R.

Turning to B4, the binding signal was found to be 1.58 enrichment R.

B5 yielded a binding signal of 1.39 enrichment R.

Turning to B6, the binding signal turned out to be 0.685 enrichment R.

Molecule B7 returned a binding signal of 0.889 enrichment R.

B8 showed a binding signal of 0.693 enrichment R.

Molecule B9 showed a binding signal of 1.12 enrichment R.

B10 displayed a binding signal of 0.57 enrichment R.

With B11, the binding signal worked out at 0.971 enrichment R.

On to B12, for which the binding signal came out at 0.769 enrichment R.

For the molecule B13, the binding signal came to 0.786 enrichment R.

In the case of B14, the binding signal came to 0.791 enrichment R.

With B15, the binding signal was found to be 0.884 enrichment R.

B16 came in with a binding signal of 1.19 enrichment R.

Regarding B17, the binding signal worked out at 1.02 enrichment R.

Turning to B18, the binding signal amounted to 0.665 enrichment R.

In turn, B19 registered a binding signal of 1.69 enrichment R.

Turning to B20, the binding signal worked out at 1.86 enrichment R.

In the case of B21, the binding signal was 1.15 enrichment R.

Take B22: the binding signal is 0.967 enrichment R.
